Experimental data: the supplement of paper PMC12217912
The list shows a part of the results. The full chains were built here from the parent and the listed change. Values near 0.05 are background.

B1: TEV protease; numbered along this chain (parent)
chain: MGESLFKGPRDYNPISSSICHLTNESDGHTTSLYGIGFGPFIITNKHLFRRNNGTLVVQSLHGVFKVKDTTTLQQHLVDGRDMIIIRMPKDFPPFPQKLKFREPQREERICLVTTNFQTKSMSSMVSDTSCTFPSGDGIFWKHWIQTKDGQCGSPLVSTRDGFIVGIHSASNFTNTNNYFTSVPKNFMELLTNQEAQQWVSGWRLNADSVLWGGHKVFMVKPEEPFQPVKEATQL

Variants of: B1
Experiment: raw area under fraction-flipped curve 0-4 h after induction (AUC4h, not background-subtracted), DNA-recorder readout of cleavage of the substrate (dimensionless); higher = more cleavage of the substrate by the protease variant
Conditions: temperature: 34 °C; time window: 0-4 h after rhamnose induction
Protocol: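 In vivo DNA recorder in E. coli TOP10(DE3) ΔrhaA at 34 °C. Each TEVp single-site mutant (parent TEVp 0) is paired with a single-site variant of the 7-mer TEVs (canonical ENLYFQ|S). The substrate sits between flexible linkers in a Bxb1-sfGFP-TEVs-SsrA fusion, so cleavage stabilises Bxb1 and speeds flipping of a recombination array, read by NGS. The value is the raw area under the fraction-flipped curve over 0-4 h after rhamnose induction (AUC4h), with ≥20 reads per time point. It is not background-subtracted; inactive controls average about 0.047.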
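Further: Bxb1 expression induced with 0.2% (w/v) L-rhamnose at OD600 near 0.5, cultures sampled hourly, flipped fraction per protease–substrate barcode pair counted by paired-end Illumina sequencing.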

| Variant | area with substrate ENLYFQA | area with substrate ENLYFQC | area with substrate ENLYFQD | area with substrate ENLYFQF | area with substrate ENLYFQG | area with substrate ENLYFQH | area with substrate ENLYFQI | area with substrate ENLYFQL | area with substrate ENLYFQM | area with substrate ENLYFQN | area with substrate ENLYFQP | area with substrate ENLYFQQ | area with substrate ENLYFQR | area with substrate ENLYFQS | area with substrate ENLYFQT | area with substrate ENLYFQV | area with substrate ENLYFQW | area with substrate ENLYFQY | area with substrate ENLYFQE | area with substrate ENLYFQK |
| --- | --- | --- | --- | --- | --- | --- | --- | --- | --- | --- | --- | --- | --- | --- | --- | --- | --- | --- | --- | --- |
| F41T | 0.072 | 0.113 | 0.0449 | 0.0708 | 0.0785 | 0.087 | 0.0529 | 0.0624 | 0.0975 | 0.058 | 0.0494 | 0.0625 | 0.0587 | 0.0929 | 0.0606 | 0.0485 | 0.0634 | 0.0733 | – | – |
| I42Q | 0.0609 | 0.0364 | – | 0.0373 | – | 0.0482 | 0.0309 | – | 0.0388 | – | – | – | 0.0392 | 0.043 | – | – | – | – | 0.0455 | – |
| I43F | 0.0892 | 0.0842 | – | 0.073 | 0.0568 | – | 0.0586 | 0.0432 | 0.0768 | 0.0726 | 0.0676 | – | 0.052 | 0.0778 | 0.0617 | – | 0.0621 | 0.0593 | – | 0.0471 |
| I43G | 0.0682 | – | 0.0252 | – | 0.0374 | 0.0437 | 0.046 | 0.0433 | 0.0527 | 0.0387 | 0.0361 | – | 0.0375 | 0.0508 | 0.0553 | 0.0359 | – | 0.051 | – | 0.0428 |
| I43W | 0.0593 | 0.082 | 0.0568 | – | 0.0493 | – | 0.0508 | 0.0475 | 0.0484 | 0.0271 | 0.0384 | – | – | 0.0511 | – | – | 0.0202 | – | 0.0457 | – |
| T44E | 0.0487 | 0.036 | – | – | – | 0.0401 | – | 0.0392 | – | 0.0484 | 0.0244 | – | 0.0443 | 0.0424 | 0.0382 | 0.0313 | 0.0371 | – | – | – |
| T44G | 0.0671 | 0.0812 | – | – | 0.0793 | 0.0653 | 0.0561 | 0.0531 | 0.0678 | 0.0368 | 0.0282 | – | 0.0543 | 0.0758 | 0.0548 | – | 0.0651 | 0.0632 | – | – |
| N45C | 0.0873 | 0.111 | 0.0699 | – | 0.102 | – | 0.0627 | 0.061 | 0.0886 | 0.0654 | – | 0.0674 | 0.0637 | 0.112 | 0.0665 | 0.0652 | 0.059 | 0.0748 | 0.0692 | 0.0687 |
| N45F | 0.0641 | 0.0666 | – | 0.0636 | 0.0655 | 0.0739 | 0.0552 | 0.0626 | 0.0588 | 0.0548 | – | 0.0664 | – | 0.0624 | 0.0611 | – | 0.059 | 0.0565 | – | 0.0779 |
| K46I | 0.0449 | 0.0693 | 0.0581 | – | 0.0687 | 0.064 | 0.0567 | 0.0603 | 0.0622 | 0.0574 | 0.0639 | – | 0.0616 | 0.0673 | 0.063 | 0.0494 | 0.0527 | 0.0481 | 0.0685 | 0.0473 |
| K46V | 0.058 | – | – | – | 0.0729 | 0.0514 | 0.0459 | 0.0548 | 0.0107 | 0.0668 | 0.0539 | – | 0.0426 | 0.0751 | 0.0542 | 0.0635 | 0.0493 | 0.0465 | – | – |
| K46W | 0.0558 | 0.058 | 0.0607 | – | 0.0561 | 0.0557 | 0.0528 | 0.0495 | 0.0574 | 0.0385 | 0.0556 | 0.0732 | 0.0677 | 0.0587 | 0.063 | 0.0562 | 0.0406 | 0.0717 | – | 0.0545 |
| H47M | 0.0622 | 0.0665 | – | 0.0669 | 0.0656 | 0.0426 | – | 0.0511 | 0.0524 | 0.0611 | – | – | 0.0376 | 0.0594 | 0.0584 | – | 0.0346 | 0.0605 | – | – |
| R50E | 0.0699 | – | 0.0583 | – | 0.0961 | 0.0957 | 0.0579 | 0.062 | 0.0711 | 0.0737 | 0.0645 | – | 0.0619 | 0.0983 | 0.0667 | 0.0563 | 0.0443 | 0.0846 | 0.063 | 0.0664 |
| N52D | 0.0663 | – | – | 0.0612 | 0.0561 | 0.0684 | – | 0.0621 | 0.0675 | 0.0574 | 0.0578 | – | 0.0414 | 0.0759 | 0.0575 | 0.0683 | 0.0577 | 0.065 | – | 0.0613 |
| G54S | 0.0694 | 0.0769 | – | 0.0617 | 0.0872 | 0.0618 | 0.0698 | 0.0576 | 0.0726 | 0.114 | 0.0645 | 0.0489 | 0.0586 | 0.0741 | – | 0.0524 | 0.0598 | 0.0725 | – | 0.0568 |
| L56E | 0.0469 | 0.0501 | – | – | 0.045 | 0.0346 | 0.0475 | 0.056 | 0.0392 | 0.0373 | – | – | 0.0409 | 0.0504 | 0.05 | 0.0413 | 0.0409 | – | – | 0.0301 |
| Q59F | 0.166 | 0.0355 | 0.0637 | – | – | 0.0414 | 0.057 | 0.0721 | 0.132 | 0.0705 | – | – | – | 0.104 | 0.0846 | 0.0448 | 0.0622 | 0.0764 | – | 0.058 |
| S60R | 0.0976 | 0.105 | – | – | 0.0903 | 0.0979 | 0.0671 | 0.0632 | 0.0771 | 0.0907 | – | – | 0.0394 | 0.0944 | – | 0.0403 | 0.063 | – | 0.0658 | – |
| L61E | 0.0973 | 0.167 | 0.0964 | – | – | 0.0899 | 0.0245 | 0.0446 | 0.112 | 0.0746 | 0.0325 | – | 0.066 | 0.0969 | 0.0648 | 0.0621 | 0.0665 | 0.0541 | – | 0.0678 |
| H62S | 0.113 | 0.118 | – | – | 0.0972 | 0.0754 | 0.0463 | – | 0.0828 | 0.0801 | – | – | 0.0581 | 0.103 | 0.0542 | 0.0435 | 0.0731 | – | 0.0556 | – |
| H62W | 0.0789 | 0.0955 | – | – | – | 0.0908 | 0.0603 | – | 0.1 | 0.0824 | 0.0532 | 0.0711 | 0.0602 | 0.0972 | 0.0673 | 0.0691 | 0.0722 | 0.0771 | – | 0.0639 |
| G63H | 0.0565 | 0.0974 | 0.0656 | – | 0.0933 | 0.0809 | 0.068 | 0.0552 | 0.0891 | 0.0728 | 0.075 | 0.0738 | 0.078 | 0.0977 | 0.0567 | – | 0.0556 | – | – | – |
